# Where “and” joins values, the source holds several entries; their conditions need not be identical. Identical values can stand only once. Among all 130,000 compounds or so, about 550 (0.42%) were called active. The inconclusive results got no clear call from the source; some entries with a clear call stand among them for comparison. Calls come from the whole dose curve; as a rule, active = well fitted inhibition curve with a large enough effect; inconclusive = small, poorly fitted or top-dose-only effect, or effect the other way; inactive = flat fitted curve, though single readings scatter. Potencies of inconclusive entries are doubtful fits and often do not repeat.
# Test: qHTS Assay for Inhibitors of the ERK Signaling Pathway using a Homogeneous Screening Assay; Stimulation with EGF; note: nearly all actives have a fitted effect of over 55% in size
# Conditions: HEK293-V1b, EGF-stimulated phospho-ERK AlphaScreen
# Method in brief: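 HEK293 cells stably expressing V1b receptor, serum-reduced (1% FBS) overnight, got compound for 30 min at 37C, then 25 nM EGF for 5 min. Lysate phospho-ERK read by AlphaScreen SureFire; AC50 from Hill fits.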
# Potency is the fitted concentration of half-maximal effect; tags give direction and shape of the fitted curve.
row,Compound,Potency
1,COC(=O)c1cc(-c2ccc(OC)c(OC)c2)on1,"inconclusive: 8.91 µM [inhibitor, single point]"
2,COc1ccc(/C=C/C(=O)Nc2ccccc2C(=O)O)cc1OC,"inconclusive: 3.55 µM [activator, partial curve]"
3,COc1ccc2nc(SCc3ccccc3C)nc(C)c2c1,"inconclusive: 35.5 µM [activator, single point]"
4,Cc1cc(C)c(C(=O)COC(=O)c2ccc([N+](=O)[O-])o2)cc1C,"inconclusive: 0.1 µM [activator, full curve, poor fit]"
5,Cc1nc2ccccc2n1C1CCN(CC(=O)Nc2ccccc2Br)CC1,"inconclusive: 7.94 µM [inhibitor, full curve, poor fit]"
6,C[C@](O)(C(=O)Nc1ccc(S(=O)(=O)c2ccccc2)cc1)C(F)(F)F,inactive
7,COc1ccc(C(=O)C2CCN(C(=S)NCCc3ccc(OC)c(OC)c3)CC2)cc1,"inconclusive: 28.2 µM [inhibitor, partial curve]"
8,C=C1C(=O)C=C2CN(C(=O)c3ccccc3)[C@@](Cc3ccc(OC)cc3)(C(=O)OC)[C@@H]12,active: 12.6 µM
9,Cc1ccc(-n2c(O)c(/C=N/Nc3ccc(S(=O)(=O)N4CCOCC4)cc3[N+](=O)[O-])c3ccccc3c2=O)c(C)c1,"inconclusive: 25.1 µM [inhibitor, partial curve]"
10,Cc1c2c(nc3ccccc13)CCC(C(C)(C)C)C2 (stereo unspecified),"inconclusive: 39.8 µM [inhibitor, single point]"
11,COc1ccc(NC(=O)N2CC3(CCN(C(=O)c4ccncc4)CC3)C2)cc1,inactive
12,CCC(CC)c1nnc(NC(=O)c2ccc(N3CCCCC3)c([N+](=O)[O-])c2)s1,"inconclusive: 39.8 µM [inhibitor, single point]"
13,COc1ccccc1NC(=O)CSc1nnc(CCNC(=O)c2ccc(C)cc2)n1C,"inconclusive: 7.94 µM [inhibitor, single point]"
14,CC(=O)c1ccc(N2CCN(C(=O)CCCn3c(=O)[nH]c4ccc(Br)cc4c3=O)CC2)cc1,"inconclusive: 28.2 µM [inhibitor, single point]"
15,CC(C)C[C@@H](CC(=O)N[C@@H](CCC(=O)O)CC(=O)O)NC(=O)[C@@H]1CCCC[C@H]1NC(=O)C[C@H](CCCN)NC(=O)C[C@H](Cc1ccccc1)NC(=O)[C@@H]1CCCC[C@H]1N,inactive
16,CN1CCN(CCCN2c3ccccc3Sc3ccc(C(F)(F)F)cc32)CC1,"inconclusive: 35.5 µM [inhibitor, single point] and inconclusive: 28.2 µM [inhibitor, single point]"

# Source: PubChem BioAssay AID1454 (National Center for Advancing Translational Sciences (NCATS), 2008)
